Data reported in PMC4336329 (PLoS ONE, 2015).
Hit rate of the full screen: of about 310,000 compounds, about 14,000 (4.5%) showed an effect of 50% or more. Effects have a minus sign here. The list shows a part of the results.

Molecular target: human ether-à-go-go-related gene (hERG) potassium channel (human, UniProt Q12809)
Experiment: primary screen, population patch clamp on CHO cells stably expressing hERG
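Note: peak tail current of the secondary pulse compared with the same well before compound.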

Chain of human ether-à-go-go-related gene (hERG) potassium channel (Q12809 whole entry, looked up): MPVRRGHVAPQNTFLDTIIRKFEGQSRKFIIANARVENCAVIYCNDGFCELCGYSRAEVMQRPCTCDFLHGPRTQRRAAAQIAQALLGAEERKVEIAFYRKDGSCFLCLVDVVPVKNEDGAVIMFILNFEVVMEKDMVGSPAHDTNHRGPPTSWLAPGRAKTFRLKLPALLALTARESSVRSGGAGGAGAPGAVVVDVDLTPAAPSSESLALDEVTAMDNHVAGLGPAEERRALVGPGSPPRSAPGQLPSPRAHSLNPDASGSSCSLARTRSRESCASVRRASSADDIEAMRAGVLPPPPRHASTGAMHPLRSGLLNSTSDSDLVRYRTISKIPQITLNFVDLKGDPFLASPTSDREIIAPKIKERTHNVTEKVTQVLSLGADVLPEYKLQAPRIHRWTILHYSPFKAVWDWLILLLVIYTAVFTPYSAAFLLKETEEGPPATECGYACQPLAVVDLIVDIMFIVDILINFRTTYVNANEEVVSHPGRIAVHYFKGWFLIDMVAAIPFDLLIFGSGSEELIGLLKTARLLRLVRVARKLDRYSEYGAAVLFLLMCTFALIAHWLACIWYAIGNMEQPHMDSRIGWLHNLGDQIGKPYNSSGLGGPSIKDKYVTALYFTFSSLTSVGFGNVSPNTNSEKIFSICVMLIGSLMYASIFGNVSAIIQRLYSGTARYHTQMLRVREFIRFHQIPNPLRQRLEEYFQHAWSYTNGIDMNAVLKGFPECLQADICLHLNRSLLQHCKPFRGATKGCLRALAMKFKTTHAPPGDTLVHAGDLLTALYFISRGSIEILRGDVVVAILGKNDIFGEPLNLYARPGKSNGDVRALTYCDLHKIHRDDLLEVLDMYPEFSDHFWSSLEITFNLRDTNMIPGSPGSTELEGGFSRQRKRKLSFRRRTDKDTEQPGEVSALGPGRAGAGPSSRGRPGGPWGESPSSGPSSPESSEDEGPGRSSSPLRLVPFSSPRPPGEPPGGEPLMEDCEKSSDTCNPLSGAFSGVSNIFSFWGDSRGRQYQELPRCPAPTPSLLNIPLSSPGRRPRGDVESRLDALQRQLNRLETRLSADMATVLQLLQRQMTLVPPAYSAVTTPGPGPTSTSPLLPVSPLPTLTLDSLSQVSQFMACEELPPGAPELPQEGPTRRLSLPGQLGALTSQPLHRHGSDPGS

| Compound | hERG current change (%, negative = inhibition) at 10uM [%] |
| --- | --- |
| Cc1cc(C)c2c(N)c(S(=O)(=O)c3ccccc3)sc2n1 | 7.32 |
| N#Cc1ccsc1NC(=O)CSc1ncnc2ccccc12 | -1.02 |
| CN(Cc1ccccc1)C(=O)CCn1c(=O)c2cccn2c2cccnc21 | -13.7 |
| Cc1cc(/C=N/Nc2ccc([N+](=O)[O-])cn2)c(C)n1-c1ccc(C(=O)O)cc1 | 19.2 |
| COc1ccc(C(CNC(=O)c2ccc(OCC3CCCO3)cc2)N2CCOCC2)cc1 (stereo not shown) | 14.5 |
| CCCCNC(=O)Cn1c(=O)c2c(ncn2CCC(C)C)n(Cc2ccccc2)c1=O | 7.07 |
| O=C1C(=O)N(c2ccccc2)C(c2ccccc2[N+](=O)[O-])/C1=C(\O)c1ccccc1 (stereo not shown) | 36.5 |
| O=[N+]([O-])c1cccc(C2=NCCC(c3ccccc3)O2)c1 (stereo not shown) | -22.8 |
| O=C(CCCCCNC(=O)c1ccccc1)N/N=C/c1ccccc1O | -6.36 |
| COC(=O)c1ccc(N2C(=O)CC(SCCN)C2=O)cc1 (stereo not shown) | -16.3 |
| COc1ccccc1NC(=O)Nc1nc(CC(=O)N2CCN(c3ccccc3)CC2)cs1 | 9.49 |
| COc1ccc(CCNC(=O)COC(=O)CCC(=O)c2ccc(F)cc2)cc1OC | 12.9 |
| Cc1ccc(/C=N/NC(=O)CSCc2ccc(Cl)cc2)cc1 | 11.3 |
| O=C(Cn1cc(C(=O)c2ccccc2)c2ccccc21)NCc1ccco1 | -8.07 |
| O=C(NCCc1ccccc1)C1CCC(Cn2c(=O)c3ccccc3n(Cc3cccc(F)c3)c2=O)CC1 (stereo not shown) | 5.01 |
| COc1cc(OC)c(NC(=O)CCCn2c(=O)oc3ccccc32)cc1Cl | 9.61 |
| COc1cccc(/C=N/n2c(-c3ccco3)nc3ccccc3c2=O)c1 | -3.1 |
| NC(=O)c1nn(Cc2ccccc2)c(=O)c2ccccc12 | 4.12 |
| Cc1noc(C)c1CSCC(=O)Nc1cc(S(C)(=O)=O)ccc1Cl | 0.564 |
| O=C(COC(=O)c1cc[n+]([O-])cc1)Nc1ccccc1Cl | 9.26 |
| CN(CCC1CCOCC1)C(=O)c1cc(COc2c(F)cccc2F)on1 | -43.6 |
| O=C1COc2ccc(C(=O)COC(=O)c3ncc(Cl)c(Cl)c3Cl)cc2N1 | 36.6 |

| Compound | hERG current change (%, negative = inhibition) at 10uM [%] |
| --- | --- |
| O=C(NCC(c1ccco1)N1CCCCC1)c1ccc(COc2ccccc2)cc1 (stereo not shown) | -43.3 |
| CCN(C(=O)CSc1nnc2c3ccccc3n(CC)c2n1)C1CCS(=O)(=O)C1 (stereo not shown) | -29 |
| O=C(COC(=O)/C=C/c1ccccc1)NNC(=O)c1ccc([N+](=O)[O-])cc1 | -24.2 |
| CN(C)c1ccc(C(=O)OCC(=O)N2CCCCCC2)cc1 | 3.85 |
| COc1ccc(C2C=C(C)Nc3nc(SC)nn32)cc1 (stereo not shown) | -19.9 |
| CCC(C)N1C(=O)c2ccccc2C1C(=O)NC1CCCCCC1 (stereo not shown) | 4.45 |
| Cc1ccccc1N(C(=O)c1snc(C(N)=O)c1N)C(C)C(=O)NC1CCCCC1 (stereo not shown) | -12.6 |
| CC(C)(CNC(=O)C1c2ccccc2-c2ccccc21)N1CCOCC1 | -0.52 |
| Cc1ccc(NC(=O)Cn2c(C)cc(C)c(C#N)c2=O)c(Cl)c1 | 14.8 |
| Cc1ccc(-n2c(=S)[nH]c3[nH]ncc3c2=O)cc1 | -11.8 |
| COCCNC(=O)CC(NS(=O)(=O)c1ccc(C)cc1)c1ccco1 (stereo not shown) | 13.1 |
| C/C(=N\N(C)C)C1=C(O)c2ccccc2C1=O | 12.5 |
| COc1ccc(CCN(C)C(=O)CCc2nnc(-c3ccccc3)o2)cc1OC | 16.6 |
| COc1ccc(N(C)S(=O)(=O)c2cccc(C(=O)OCC(=O)NCc3ccccc3OC)c2)cc1 | -2.62 |
| O=[N+]([O-])c1ccc(CSc2nc3ncc(Br)cc3[nH]2)cc1 | 6.04 |
| Cc1ccc(C)c(N2CCN(C(=O)C(Cc3ccccc3)n3cccc3)CC2)c1 (stereo not shown) | -0.875 |
| O=C(NNS(=O)(=O)c1ccc(F)cc1)c1ccc(S(=O)(=O)N2CCCCC2)cc1 | -23.2 |
| C/C(=C\C(=O)c1ncc(C(F)(F)F)cc1Cl)N(C)C | -3.11 |
| ClCc1c2ccccc2cc2ccccc12 | -3.93 |
| CCOC(=O)c1c(C)[nH]c(C(=O)OCC(=O)N2CCN(S(=O)(=O)c3ccccc3)CC2)c1C | -1.33 |
| O=C(CCc1c[nH]c2ccccc12)N[C@@H](Cc1c[nH]c2ccc(O)cc12)C(=O)O | 17 |
